# According to US20240425574A1, “ANTI-PDGF-B ANTIBODIES AND PHARMACEUTICAL COMPOSITION THEREOF” (Regeneron Pharmaceuticals, Inc., priority 2021, published 2024):
# Assays:
# human PDGF-BB = human PDGF-BB (Homo sapiens, UniProt P01127); settings: 1 nM PDGF-BB, PDGF-AB & PDGF-AB/BB (3:1); anti-PDGF-B antibodies at 60 seconds
# hypoxia/sugen PAH mice = type: in vivo, mouse
# Method: For the second study (Study 2), 12 to 14 weeks old male C57/BL mice, (Taconic) were used for the studies. Mice were separated into treatment groups by weight such that starting body weights were similar among different groups. […] Mice in hypoxia chamber were given VEGF receptor inhibitor Sugen5146 at 20 mg/kg subcutaneously once a week for 6 weeks. The mice were administered antibodies starting on day 21 for 3 weeks as outlined in Table 12. By the end of week 6, right ventricular systolic pressure (RVSP) was measured by right heart catheterization and RV hypertrophy was calculated by Fulton index as the weight ratio of RV and (LV+septum). […]
# Mice were anesthetized with isoflurane and were kept at approximately 37° C. using a heated platform (Heated Hard Pad 1, Braintree Scientific) and circulating heated water pump (T/Pump Classic, Gaymar Industries). […] The catheter was connected to pressure/volume instrument (MPVS-300, Millar Instruments, Inc.) that measured heart rate as well as both diastolic and systolic right ventricular pressures. […] Readings were quantified from a 60 second interval of the pressure tracing (following a 2 minute period of recording to allow for pressure stabilization). The parameters analyzed were right ventricular systolic pressures (RVSP), heart rate (HR) and rate of right ventricular pressure rise (dP/dt max). […]
# Sequence of human PDGF-BB (P01127 82-190 limits assumed): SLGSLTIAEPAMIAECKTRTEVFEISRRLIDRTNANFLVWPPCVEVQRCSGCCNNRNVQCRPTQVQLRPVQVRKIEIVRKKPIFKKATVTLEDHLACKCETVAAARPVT
molecule,measurement,setting,value
"H4H13145P: fully human anti-PDGF-B mAb, human IgG4 Fc; HCVR/LCVR SEQ ID NOs: 2/10, HC/LC 18/20 (antibody) heavy: QVQLVQSGTEVKKPGASVKVSCKASGYTYGAYAISWVRQAPGQGLEWMGWISAYNGNTNYAQKFQDRVTMTTDTSTNTAYMELRGLKSDDTAVYFCARAWNSFDYWGQGTLVTVSSASTKGPSVFPLAPCSRSTSESTAALGCLVKDYFPEPVTVSWNSGALTSGVHTFPAVLQSSGLYSLSSVVTVPSSSLGTKTYTCNVDHKPSNTKVDKRV[human IgG4 Fc with S228P (EU numbers) left out here] light: DIQMTQSPSSLSASVGDRVTITCQASQDIRKNLNWYQQKPGKAPKLLISDASTLETGVPSRFSGSGSGTDFTFTISSLQPEDIAKYYCQQYYNLPFTFGPGTKVDIKRTVAAPSVFIFPPSDEQLKSGTASVVCLLNNFYPREAKVQWKVDNALQSGNSQESVTEQDSKDSTYSLSSTLTLSKADYEKHKVYACEVTHQGLSSPVTKSFNRGEC",inhibition of PDGF mediated calcium flux in words,human PDGF-BB,complete inhibition
same,right ventricular systolic pressure elevation,"hypoxia/sugen PAH mice; 1, 3, 10 and 25 mg/kg SC 2x/week from day 21, week 6",significantly reduced
same,Reduction in RVSP,"hypoxia/sugen PAH mice; Hypoxia/Sugen Mice - Therapeutic dose response, dose mg/kg: H4H13145P 1, Macitentan 30, REGN2176 25",6 mmHg
